# In PubChem BioAssay AID504333 (National Center for Advancing Translational Sciences (NCATS), 2011):
# Hit rate of the full screen: of about 360,000 compounds, about 16,000 (4.4%) were called active. The inconclusive results got no clear call from the source; some entries with a clear call stand among them for comparison. The call rests on the fitted dose curve; in most records, active means well fitted inhibition curve with a large enough effect; inconclusive means small, poorly fitted or top-dose-only effect; inactive means no such curve, though single readings can be large or run the other way. Potencies beside an inconclusive call are fits to weak or partial responses and may not hold up.
# Target: Bromodomain adjacent to zinc finger domain protein 2B (Homo sapiens) (UniProt Q9UIF8)
# Experiment: qHTS Assay for Inhibitors of BAZ2B; further: nearly all actives have a fitted effect of over 60% in size
# Conditions: AlphaScreen BAZ2B-H3K14Ac peptide displacement; series mostly up to 114 µM
# Procedure, shortened: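 AlphaScreen luminescence quantifies BAZ2B engagement of H3K14Ac peptide; the protein and biotinylated peptide are both at 50 nM final, buffer PBS pH 7.4 with 0.01% Tween-20, all steps at room temperature.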
# Potency means the concentration at half of the fitted maximal effect; tags describe the fitted curve by direction and shape.
# Chain of UniProt Q9UIF8 (Q9UIF8 whole entry, looked up, the tested form may be a part): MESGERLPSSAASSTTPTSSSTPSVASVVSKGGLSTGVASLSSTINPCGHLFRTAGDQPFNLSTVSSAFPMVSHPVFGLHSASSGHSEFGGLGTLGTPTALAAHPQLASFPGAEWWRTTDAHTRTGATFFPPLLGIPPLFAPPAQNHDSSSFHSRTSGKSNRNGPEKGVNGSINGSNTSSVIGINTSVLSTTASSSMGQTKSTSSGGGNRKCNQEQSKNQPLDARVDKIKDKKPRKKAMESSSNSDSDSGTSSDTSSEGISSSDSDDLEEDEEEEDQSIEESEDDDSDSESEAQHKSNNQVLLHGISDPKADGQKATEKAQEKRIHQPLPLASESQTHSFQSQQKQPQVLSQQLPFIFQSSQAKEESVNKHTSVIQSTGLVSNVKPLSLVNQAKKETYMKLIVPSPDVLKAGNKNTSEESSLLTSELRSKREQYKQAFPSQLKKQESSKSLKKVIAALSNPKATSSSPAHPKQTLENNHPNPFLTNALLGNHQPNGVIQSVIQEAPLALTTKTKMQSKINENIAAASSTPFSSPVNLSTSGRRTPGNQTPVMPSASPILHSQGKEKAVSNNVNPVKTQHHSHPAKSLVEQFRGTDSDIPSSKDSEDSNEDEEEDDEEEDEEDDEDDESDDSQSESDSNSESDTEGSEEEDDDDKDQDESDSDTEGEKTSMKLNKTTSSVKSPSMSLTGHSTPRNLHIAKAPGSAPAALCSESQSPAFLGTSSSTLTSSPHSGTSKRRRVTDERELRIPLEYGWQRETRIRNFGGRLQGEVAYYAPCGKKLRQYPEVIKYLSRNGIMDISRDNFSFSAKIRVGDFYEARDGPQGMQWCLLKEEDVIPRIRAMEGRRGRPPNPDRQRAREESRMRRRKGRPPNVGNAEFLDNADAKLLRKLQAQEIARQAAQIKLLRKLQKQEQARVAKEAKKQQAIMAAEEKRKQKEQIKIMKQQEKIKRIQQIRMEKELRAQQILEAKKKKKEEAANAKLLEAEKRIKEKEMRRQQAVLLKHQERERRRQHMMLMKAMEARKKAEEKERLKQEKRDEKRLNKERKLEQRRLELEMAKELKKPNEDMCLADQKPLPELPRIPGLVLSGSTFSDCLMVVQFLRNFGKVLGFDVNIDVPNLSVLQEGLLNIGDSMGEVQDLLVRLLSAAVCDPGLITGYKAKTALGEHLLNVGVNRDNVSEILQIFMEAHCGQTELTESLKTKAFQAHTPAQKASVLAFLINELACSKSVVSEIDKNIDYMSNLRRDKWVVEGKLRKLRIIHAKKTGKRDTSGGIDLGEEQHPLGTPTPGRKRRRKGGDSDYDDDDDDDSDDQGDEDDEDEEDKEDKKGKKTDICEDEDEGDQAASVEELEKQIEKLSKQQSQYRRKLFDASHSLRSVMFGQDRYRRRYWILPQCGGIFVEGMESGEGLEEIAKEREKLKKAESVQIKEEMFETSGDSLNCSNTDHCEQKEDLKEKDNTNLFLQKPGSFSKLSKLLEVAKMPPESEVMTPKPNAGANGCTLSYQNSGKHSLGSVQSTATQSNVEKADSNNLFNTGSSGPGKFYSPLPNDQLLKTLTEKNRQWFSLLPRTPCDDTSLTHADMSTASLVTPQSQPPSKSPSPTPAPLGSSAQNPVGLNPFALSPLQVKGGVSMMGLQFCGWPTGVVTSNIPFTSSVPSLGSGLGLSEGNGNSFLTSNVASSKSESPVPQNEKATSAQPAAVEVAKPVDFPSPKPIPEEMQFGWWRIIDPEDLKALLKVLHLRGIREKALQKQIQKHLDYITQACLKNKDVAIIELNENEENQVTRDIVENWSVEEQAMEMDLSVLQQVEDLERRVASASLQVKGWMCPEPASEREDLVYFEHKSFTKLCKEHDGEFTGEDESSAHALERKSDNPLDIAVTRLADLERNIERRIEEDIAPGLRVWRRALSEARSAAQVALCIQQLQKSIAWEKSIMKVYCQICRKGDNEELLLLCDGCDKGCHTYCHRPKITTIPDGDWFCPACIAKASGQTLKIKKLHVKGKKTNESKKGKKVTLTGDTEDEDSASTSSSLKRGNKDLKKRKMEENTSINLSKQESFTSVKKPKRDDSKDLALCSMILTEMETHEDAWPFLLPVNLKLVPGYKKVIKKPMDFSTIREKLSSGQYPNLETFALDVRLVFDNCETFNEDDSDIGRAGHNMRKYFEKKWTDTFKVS
row,Compound,Potency
1,COc1cc(Cl)c(NC(=O)c2cc(S(=O)(=O)N3CCOCC3)cn2C)c(OC)c1,inactive
2,Cc1ccc(N(C(=O)c2ccc(S(=O)(=O)N3CCOCC3)cc2)C2C=CS(=O)(=O)C2)cc1C (stereo not drawn),inactive
3,COc1cc(S(=O)(=O)N2CCN(C(=O)c3ccccc3F)CC2)c(OC)cc1NC(C)=O,inactive
4,CN(C)/C=C/C(=O)c1ccc2noc(-c3ccc(F)cc3)c2c1,"inconclusive: 79.4 µM [inhibitor, single point]"
5,COc1ccccc1S(=O)(=O)N1CCn2cccc2C1C (stereo not drawn),"inconclusive: 89.1 µM [inhibitor, single point]"
6,CC(C)NC(=S)N/N=C/C1=CCC2CC1C2(C)C (stereo not drawn),"inconclusive: 79.4 µM [inhibitor, single point]"
7,C#CCSc1nc2sc3c(c2c(=O)n1-c1cccc(OC)c1)CCN(C(C)=O)C3,"inconclusive: 89.1 µM [inhibitor, single point]"
8,CCCC1=C(C(=O)OCC)C(c2cc(Cl)cc(OC)c2OCC(=O)OCC)NC(=O)N1 (stereo not drawn),inactive
9,COc1ccc(C2c3c(-c4ccccc4O)n[nH]c3C(=O)N2Cc2ccco2)cc1OC (stereo not drawn),active: 56.2 µM
10,CC1CCCN(C(=S)Nc2ccc(Nc3ccccc3)cc2)C1 (stereo not drawn),inactive
11,O=C(O)c1c[nH]c(=S)n1-c1ccc(F)cc1,"inconclusive: 89.1 µM [inhibitor, single point]"
12,Cc1ccn2cc(-c3nonc3C)cc2c1,active: 56.2 µM
13,CN(C)CCCN(C(=O)c1ccc(Cl)s1)c1nc2cc3c(cc2s1)OCO3,"inconclusive: 35.5 µM [inhibitor, single point]"
14,CCCCNc1c(-c2ccc(SC3CCCCC3)cc2)nc2ccccn12,"inconclusive: 79.4 µM [inhibitor, partial curve]"
15,CC1CCN(C(=S)c2cn(Cc3ccc(F)cc3)c3ccccc23)CC1,"inconclusive: 20 µM [inhibitor, full curve]"
16,CCN(CCCNC(=O)c1ccc(Sc2ccc(C)cc2)c(NC(C)=O)c1)c1cccc(C)c1,"inconclusive: 8.91 µM [inhibitor, full curve]"
17,Cc1[nH]c2ccccc2c1C(=O)CSc1ccc(Cl)cc1,inactive
18,O=C(Nc1ccccc1C(=O)O)c1ccc2ccccc2n1,"inconclusive: 89.1 µM [inhibitor, single point]"
19,COc1ccc(CN2CCN(Cc3ccc(C)cc3)CC2)c(OC)c1,active: 22.4 µM
20,c1ccc(COc2cccc(CNCc3ccccn3)c2)cc1,"inconclusive: 63.1 µM [inhibitor, partial curve, poor fit]"
21,COC(=O)c1cc(C(=O)OC)cc(N2C(=O)CC(Sc3nc(C)cc(C)n3)C2=O)c1 (stereo not drawn),inactive
22,Cc1sc(C2C(C#N)=C(N)N(c3cccc(Cl)c3)C3=C2C(=O)CCC3)cc1CN1CCOCC1 (stereo not drawn),"inconclusive: 44.7 µM [inhibitor, partial curve]"
23,CCn1c(C(C)NC(=O)c2ccccc2C)n[nH]c1=S (stereo not drawn),inactive
24,Cn1c(=O)c(=O)n(C)c2cc(N3CCOCC3)c(NS(=O)(=O)c3ccc([N+](=O)[O-])cc3)cc21,active: 79.4 µM

row,Compound,Potency
1,Cc1ccc(S(=O)(=O)N(CC(=O)N/N=C/c2ccccc2C(=O)O)c2cc(Cl)cc(Cl)c2)cc1,"inconclusive: 56.2 µM [inhibitor, partial curve]"
2,COc1cc(OC)c(NC(=O)CSC2=Nc3ccccc3N=C(c3ccc(F)cc3)C2)cc1Cl,"inconclusive: 3.55 µM [inhibitor, full curve]"
3,CCOc1ccc(CNC(=O)c2ccc3c(c2)sc2nc(-c4ccc(OC)cc4)cn23)cc1,inactive
4,CCCN1C(=O)c2ccccc2NC1c1ccc(O)c(OCC)c1 (stereo not drawn),inactive
5,O=C(CSc1nnc(CNC(=O)c2ccccc2)o1)Nc1nccs1,active: 79.4 µM
6,Cc1onc(-c2ccccc2Cl)c1C(=O)NCCN1Cc2ccccc2C1=O,"inconclusive: 89.1 µM [inhibitor, single point]"
7,COc1ccc(NC2=C(NCCO)C(=O)c3ccccc3C2=O)cc1,active: 22.4 µM
8,O=C(CN1CCCC1)NC12CC3CC(CC(C3)C1)C2,inactive
9,CC(C)CCNC(=O)c1ccc(Cn2c(=O)c3cccn3c3cccnc32)cc1,"inconclusive: 89.1 µM [inhibitor, single point]"
10,COc1ccc(-c2ncc(CN3CCN(CCC(C)C)C(CCO)C3)cn2)cc1 (stereo not drawn),inactive
11,Oc1ccccc1N1CCN(CC(O)COCc2ccccc2Cl)CC1 (stereo not drawn),active: 50.1 µM
12,CSc1nnc(N2C(=O)C(O)=C(C(=O)c3ccco3)C2c2cccc(Cl)c2)s1 (stereo not drawn),active: 79.4 µM
13,Oc1c(C(c2cccs2)N2CCN(c3cccc(Cl)c3)CC2)sc2ncnn12 (stereo not drawn),"inconclusive: 89.1 µM [inhibitor, single point]"
14,O=C(O)C1CCC(c2ccc(-c3ccccc3)cc2)CC1 (stereo not drawn),"inconclusive: 89.1 µM [inhibitor, single point]"
15,O=C(CSc1n[nH]c(-c2ccccn2)n1)Nc1ccccc1F,active: 4.47 µM
16,Cc1cc(C)c2c(N)c(C(=O)Nc3ccccc3Br)sc2n1,inactive
17,O=C(COC(=O)c1ccc(C(F)(F)F)cc1)Nc1cccc(S(=O)(=O)N2CCCCC2)c1,inactive
18,Cc1cc2ccccn2c1C(=O)Nc1ccc(Cl)cc1,inactive
19,O=[N+]([O-])c1ccc(C(O)CN=Cc2ccc(O)cc2O)cc1 (stereo not drawn),"inconclusive: 70.8 µM [inhibitor, partial curve]"
20,CC(CCc1ccccc1)NC(=O)c1ccc(Br)o1 (stereo not drawn),"inconclusive: 89.1 µM [inhibitor, single point]"
21,Cc1cc(C)cc(C(=O)Nc2ccc(N3CCCC3)cc2)c1,"inconclusive: 39.8 µM [inhibitor, partial curve]"
22,C=CCn1c(NC(=O)c2ccccc2Cl)c(C#N)c2nc3ccccc3nc21,inactive
23,COC(=O)/C=C/c1c(C)nc(NCc2ccccc2)nc1Cl,"inconclusive: 79.4 µM [inhibitor, single point]"
24,CCN1CCN(S(=O)(=O)c2ccc(Cl)c(C(=O)Nc3ccccc3N3CCCC3)c2)CC1,"inconclusive: 89.1 µM [inhibitor, single point]"
